From patent publication US8536183B2, “3-pyridylcarbonyl-piperazinylsulfonyl derivatives” (Convergence Pharmaceuticals Limited, priority 2008, dated 2013)
Some results were stated once for a whole list of compounds, not compound by compound.

molecular target: T1, hCaV2.2 (Homo sapiens, UniProt Q00975); assay: hCaV2.2 assay, IonWorks planar array electrophysiology in stably transfected HEK293 cells; assay type: cell-based; conditions: 10th versus 1st depolarising pulse, 10 Hz, holding potential -90 mV to +10 mV; HEK293 cells expressing human CaV2.2 alpha/beta3/alpha2delta1
T1 construct: expressed in transfected cells; plasmids pCIN5-hCaV2.2, pCIH-hCaV β3, pCIP-α2δ1
T1 sequence (Q00975 whole entry): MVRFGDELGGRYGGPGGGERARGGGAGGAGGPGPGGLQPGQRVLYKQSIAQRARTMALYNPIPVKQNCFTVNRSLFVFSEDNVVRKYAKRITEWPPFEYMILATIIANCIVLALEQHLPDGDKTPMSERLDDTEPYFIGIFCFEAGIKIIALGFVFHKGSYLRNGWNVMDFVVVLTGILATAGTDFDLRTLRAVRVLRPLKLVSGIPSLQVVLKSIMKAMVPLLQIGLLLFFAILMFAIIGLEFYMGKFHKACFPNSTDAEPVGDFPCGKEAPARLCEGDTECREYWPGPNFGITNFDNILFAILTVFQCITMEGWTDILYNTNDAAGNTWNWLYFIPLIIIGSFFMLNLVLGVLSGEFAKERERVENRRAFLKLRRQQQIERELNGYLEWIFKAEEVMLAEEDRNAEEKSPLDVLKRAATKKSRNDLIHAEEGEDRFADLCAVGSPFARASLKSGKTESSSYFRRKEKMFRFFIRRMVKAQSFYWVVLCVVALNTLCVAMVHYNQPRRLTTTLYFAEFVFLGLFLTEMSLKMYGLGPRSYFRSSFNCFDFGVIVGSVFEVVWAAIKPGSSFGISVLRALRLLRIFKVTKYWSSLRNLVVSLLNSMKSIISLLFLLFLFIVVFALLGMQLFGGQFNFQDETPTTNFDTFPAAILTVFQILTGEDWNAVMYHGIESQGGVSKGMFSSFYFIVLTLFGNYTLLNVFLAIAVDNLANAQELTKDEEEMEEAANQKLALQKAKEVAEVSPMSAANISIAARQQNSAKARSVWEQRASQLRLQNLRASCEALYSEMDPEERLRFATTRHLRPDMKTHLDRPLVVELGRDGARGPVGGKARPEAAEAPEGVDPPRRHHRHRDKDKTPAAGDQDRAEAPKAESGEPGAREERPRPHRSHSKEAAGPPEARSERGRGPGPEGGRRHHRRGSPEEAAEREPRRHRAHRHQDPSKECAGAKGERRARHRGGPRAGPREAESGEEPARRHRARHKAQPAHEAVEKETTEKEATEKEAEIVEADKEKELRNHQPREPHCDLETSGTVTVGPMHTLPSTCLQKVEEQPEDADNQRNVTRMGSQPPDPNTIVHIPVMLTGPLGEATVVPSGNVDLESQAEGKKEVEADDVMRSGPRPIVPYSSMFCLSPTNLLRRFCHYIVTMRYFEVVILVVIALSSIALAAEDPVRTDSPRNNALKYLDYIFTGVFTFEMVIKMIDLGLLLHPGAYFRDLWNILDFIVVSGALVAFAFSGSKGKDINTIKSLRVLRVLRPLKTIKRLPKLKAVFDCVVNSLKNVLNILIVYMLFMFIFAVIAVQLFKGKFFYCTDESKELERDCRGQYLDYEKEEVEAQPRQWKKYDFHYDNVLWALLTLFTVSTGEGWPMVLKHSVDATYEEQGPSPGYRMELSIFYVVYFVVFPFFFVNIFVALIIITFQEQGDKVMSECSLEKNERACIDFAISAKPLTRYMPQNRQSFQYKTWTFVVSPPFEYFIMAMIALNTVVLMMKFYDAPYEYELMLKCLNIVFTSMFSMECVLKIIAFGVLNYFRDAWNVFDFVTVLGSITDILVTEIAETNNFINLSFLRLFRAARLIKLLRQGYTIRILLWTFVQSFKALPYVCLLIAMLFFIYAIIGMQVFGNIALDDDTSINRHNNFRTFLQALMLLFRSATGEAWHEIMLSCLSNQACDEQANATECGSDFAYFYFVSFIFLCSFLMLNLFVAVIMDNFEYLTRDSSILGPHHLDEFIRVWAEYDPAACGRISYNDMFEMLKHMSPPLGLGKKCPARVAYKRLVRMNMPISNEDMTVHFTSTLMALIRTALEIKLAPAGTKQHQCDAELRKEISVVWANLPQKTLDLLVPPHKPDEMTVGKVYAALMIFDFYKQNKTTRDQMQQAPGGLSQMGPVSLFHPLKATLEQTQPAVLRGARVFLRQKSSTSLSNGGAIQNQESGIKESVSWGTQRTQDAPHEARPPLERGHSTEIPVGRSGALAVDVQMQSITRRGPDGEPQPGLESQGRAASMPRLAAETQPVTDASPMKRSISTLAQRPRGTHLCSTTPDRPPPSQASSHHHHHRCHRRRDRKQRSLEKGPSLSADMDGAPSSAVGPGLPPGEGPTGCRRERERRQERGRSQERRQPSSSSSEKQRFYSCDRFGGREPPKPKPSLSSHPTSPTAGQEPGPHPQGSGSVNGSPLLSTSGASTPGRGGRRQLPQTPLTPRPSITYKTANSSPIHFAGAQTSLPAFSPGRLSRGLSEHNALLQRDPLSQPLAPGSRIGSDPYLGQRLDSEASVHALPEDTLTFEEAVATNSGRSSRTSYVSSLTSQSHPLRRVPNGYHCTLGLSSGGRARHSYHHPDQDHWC
Description: Compounds of the invention may be tested for in vitro biological activity in the hCaV2.2 assay in accordance with the following studies:
Stable cell lines expressing the human CaV2.2 α (als) subunit, along with the human […] and α2δ1 auxiliary subunits were created following sequential transfection and selection of human embryonic kidney (HEK293) cells. HEK293 cells were cultured in Dulbecco's modified Eagles media/F12 media (Invitrogen, Cat #041-95750V) containing 10% foetal bovine serum, with added L-glutamine (2 mM; Invitrogen, Cat #25030-024) and non-essential amino acids (5%; Invitrogen, Cat #11140-035). Initially HEK293 cells were transfected with two plasmid vectors for expression of the hCaV2.2 α subunit (pCIN5-hCaV2.2 which carries a neomycin resistance marker) and the hCaV β3 subunit (pCIH-hCaV β3 which carries a hygromycin resistance marker). Clonal cell lines were isolated following selection in media supplemented with 0.4 mg ml^−1 Geneticin G418 (Invitrogen, Cat #10131-027) and 0.1 mg ml^1 hygromycin (Invitrogen, Cat #10687-010). These clonal cell lines were assessed for Cav2.2α/β3-mediated current expression using the IonWorks planar array electrophysiology technology (described below). A clonal line was identified that gave a reasonable level of functional Cav2.2α/β3 current expression. This cell line was transfected with a plasmid vector for expression of the human […] subunit (pCIP-α2δ1 which carries a puromycin resistance marker) and clonal cell lines isolated following selection in media containing 0.62 μg ml^−1 puromycin (Sigma, Cat #P-7255), in addition to 0.4 mg ml^−1 Geneticin G418 and 0.1 mg ml^−1 hygromycin. Several cell lines were identified that gave robust levels of Cav2.2α/β3/α2δ1-mediated current expression and one of these was selected for compound profiling. Expression of all three subunits within this cell line was continuously maintained by the inclusion of G418 (0.4 mg ml^−1), hygromycin (0.1 mg ml^−1) and puromycin (0.62 μg ml^−1). Cells were maintained at 37° C. in a humidified environment containing 5% CO2 in air. Cells were liberated from the T175 culture flasks for passage and harvesting using TrpLE (Invitrogen, Cat #12604-013).
Cells were grown to 30-60% confluence in T175 flasks and maintained at 30° C. for 24 hrs prior to recording. Cells were lifted by removing the growth media, washing with Ca^2+ free PBS (Invitrogen, Cat #14190-094) and incubating with 3 ml of warmed (37° C.) TrpLE (Invitrogen, Cat #12604-013) for 6 minutes. Lifted cells were suspended in 10 ml of extracellular buffer. Cell suspension was then placed into a 15 ml tube and centrifuged for 2 minutes at 700 rpm. After centrifugation, the supernatant was removed and the cell pellet was resuspended in 4.5 ml of extracellular solution.
Currents were recorded at room temperature (21-23° C.) using the IonWorks planar array electrophysiology technology (Molecular Devices Corp.). Stimulation protocols and data acquisition were carried out using a microcomputer (Dell Pentium 4). In order to determine planar electrode hole resistances (Rp), a 10 mV, 160 ms potential difference was applied across each hole. These measurements were performed before cell addition. After cell addition a seal test was performed prior to antibiotic (amphotericin) circulation to achieve intracellular access. Leak subtraction was conducted in all experiments by applying a 160 ms hyperpolarizing (10 mV) prepulse 200 ms before the test pulses to measure leak conductance. Test pulses stepping from the holding potential (VH) of −90 mV to +10 mV were applied for 20 ms and repeated 10 times at a frequency of 10 Hz. In all experiments, the test pulse protocol was performed in the absence (pre-read) and presence (post-read) of a compound. Pre- and post-reads were separated by a compound addition followed by a 3-3.5 min incubation.
The intracellular solution contained the following (in mM): K-gluconate 120, KCl 20 mM, MgCl2 5, EGTA 5, HEPES 10, adjusted to pH 7.3. […]

| SMILES | pUD30 (use-dependent; concentration producing 30% use-dependent inhibition) |
| --- | --- |
| Cc1ccc(C(=O)N2CCN(S(=O)(=O)c3ccc(C#N)cc3C)C[C@H]2C)cn1 [Example 63, 3-methyl-4-({(3R)-3-methyl-4-[(6-methyl-3-pyridinyl)carbonyl]-1-piperazinyl}sulfonyl)benzo-nitrile] | ≥ 5.0 |
| Cc1ncccc1C(=O)N1CCN(S(=O)(=O)c2ccc(C(F)(F)F)cc2)C[C@H]1C.O=CO [Example 20, (2R)-2-methyl-1-[(2-methyl-3-pyridinyl)carbonyl]-4-{[4-(trifluoromethyl)phenyl]sulfonyl}piperazine formic acid salt (1:1)] | ≥ 4.5 |
| Cc1ncccc1C(=O)N1CCN(S(=O)(=O)c2ccc(OC(F)(F)F)cc2)C[C@@H]1C [Example 64, (2S)-2-methyl-1-[(2-methyl-3-pyridinyl)carbonyl]-4-({4-[(trifluoromethyl)oxy]phenyl}sulfonyl)piperazine] | ≥ 4.5 |
| Cc1ccc(C(=O)N2CCN(S(=O)(=O)c3ccc(C#N)cc3C)[C@@H](C)C2)cn1.Cl [Example 52, 3-methyl-4-({(2S)-2-methyl-4-[(6-methyl-3-pyridinyl)carbonyl]-1-piperazinyl}sulfonyl)benzonitrile hydrochloride] | ≥ 4.5 |
| C[C@H]1CN(S(=O)(=O)c2ccc(C(F)(F)F)cc2)CCN1C(=O)c1ccc(Cl)nc1 [Example 26, (2S)-1-[(6-Chloro-3-pyridinyl)carbonyl]-2-methyl-4-{[4-(trifluoromethyl)phenyl]sulfonyl}piperazine] | ≥ 4.5 |
| Cc1ccc(C(=O)N2CCN(S(=O)(=O)c3ccc(Cl)cc3)[C@@H](C)C2)cn1 [Example 8, (2S)-1-[(4-Chlorophenyl)sulfonyl]-2-methyl-4-[(6-methyl-3-pyridinyl)carbonyl]piperazine] | ≥ 4.5 |
| Cc1ncccc1C(=O)N1CCN(S(=O)(=O)c2ccc(C(F)(F)F)cc2)[C@H](C)C1.O=CO [Example 10, (2R)-2-Methyl-4-[(2-methyl-3-pyridinyl)carbonyl]-1-{[4-(trifluoromethyl)phenyl]sulfonyl}piperazine formic acid salt] | ≥ 4.5 |
| O=C(c1ccc(N2CCCC2)nc1)N1CCN(S(=O)(=O)c2ccc(C(F)(F)F)cc2)CC1 [Example 69, 1-{[6-(1-pyrrolidinyl)-3-pyridinyl]carbonyl}-4-{[4-(trifluoromethyl)phenyl]sulfon-yl}piperazine] | ≥ 5.5 |
| Cc1ccc(C(F)(F)F)cc1S(=O)(=O)N1CCN(C(=O)c2cccnc2C)[C@@H](C)C1 [Example 60, (2S)-2-methyl-1-[(2-methyl-3-pyridinyl)carbonyl]-4-{[2-methyl-5-(trifluoromethyl)phenyl]sulfon-yl}piperazine] | ≥ 4.5 |
| Cc1cc(C#N)ccc1S(=O)(=O)N1CCN(C(=O)c2ccc(Cl)nc2C)[C@@H](C)C1 [Example 25, 4-({(3S)-4-[(6-Chloro-2-methyl-3-pyridinyl)carbonyl]-3-methyl-1-piperazinyl}sulfonyl)-3-methylbenzonitrile] | ≥ 5.5 |
| Cc1ccc(C(=O)N2CCN(S(=O)(=O)c3ccc(OC(F)(F)F)cc3)C[C@@H]2C)cn1 [Example 21, (2S)-2-Methyl-1-[(6-methyl-3-pyridinyl)carbonyl]-4-({4-[(trifluoromethyl)oxy]phenyl}sulfonyl)piperazine] | ≥ 5.5 |
| C[C@H]1CN(S(=O)(=O)c2ccc(C(F)(F)F)cc2)CCN1C(=O)c1cncc(Br)c1 [Example 28, (2S)-1-[(5-Bromo-3-pyridinyl)carbonyl]-2-methyl-4-{[4-(trifluoromethyl)phenyl]sulfonyl}piperazine] | ≥ 5.5 |
| COc1ccc(C(=O)N2CCN(S(=O)(=O)c3ccc(C(F)(F)F)cc3)C[C@@H]2C)cn1 [Example 14, (2S)-2-Methyl-1-{[6-(methyloxy)-3-pyridinyl]carbonyl}-4-{[4-(trifluoromethyl)phenyl]sulfonyl}piperazine] | ≥ 5.5 |
| O=C(c1ccc(N2CCOCC2)nc1)N1CCN(S(=O)(=O)c2ccc(C(F)(F)F)cc2)CC1 [Example 6, 4-{5-[(4-{[4-(Trifluoromethyl)phenyl]sulfonyl}-1-piperazinyl)carbonyl]-2-pyridinyl}morpholine] | ≥ 4.5 |
| Cc1nc(Cl)ccc1C(=O)N1CCN(S(=O)(=O)c2ccc(C(F)(F)F)cc2)C[C@@H]1C [Example 24, (2S)-1-[(6-Chloro-2-methyl-3-pyridinyl)carbonyl]-2-methyl-4-{[4-(trifluoromethyl)phenyl]sulfonyl}piperazine] | ≥ 5.5 |
| Cc1ncccc1C(=O)N1CCN(S(=O)(=O)c2ccc(C(F)(F)F)cc2)CC1 [Example 5, 1-[(2-Methyl-3-pyridinyl)carbonyl]-4-{[4-(trifluoromethyl)phenyl]sulfonyl}piperazine] | ≥ 4.5 |
| O=C(c1ccc(NC2CCOCC2)nc1)N1CCN(S(=O)(=O)c2ccc(C(F)(F)F)cc2)CC1 [Example 70, N-(tetrahydro-2H-pyran-4-yl)-5-[(4-{[4-(trifluoromethyl)phenyl]sulfon-yl}-1-piperazinyl)carbonyl]-2-pyridinamine] | ≥ 4.5 |

same assay, conditions: 10th versus 1st depolarising pulse, 10 Hz, holding potential -90 mV to +10 mV; HEK293 cells expressing human CaV2.2 alpha/beta3/alpha2delta1; formic acid salt

| SMILES | pUD30 (use-dependent; concentration producing 30% use-dependent inhibition) |
| --- | --- |
| Cc1ccc(C(=O)N2CCN(S(=O)(=O)c3ccc(C(F)(F)F)cc3)[C@H](C)C2)cn1.O=CO [Example 9, (2R)-2-Methyl-4-[(6-methyl-3-pyridinyl)carbonyl]-1-{[4-(trifluoromethyl)phenyl]sulfonyl}piperazine formic acid salt] | ≥ 5.0 |

same assay, conditions: 10th versus 1st depolarising pulse, 10 Hz, holding potential -90 mV to +10 mV; HEK293 cells expressing human CaV2.2 alpha/beta3/alpha2delta1; hydrochloride

| SMILES | pUD30 (use-dependent; concentration producing 30% use-dependent inhibition) |
| --- | --- |
| CCNc1ccc(C(=O)N2CCN(S(=O)(=O)c3ccc(C(F)(F)F)cc3)C[C@@H]2C)c(C)n1.Cl [Example 36, N-Ethyl-6-methyl-5-[((2S)-2-methyl-4-{[4-(trifluoromethyl)phenyl]sulfonyl}-1-piperazinyl)carbonyl]-2-pyridinamine hydrochloride] | ≥ 5.5 |
| CNc1ccc(C(=O)N2CCN(S(=O)(=O)c3ccc(C(F)(F)F)cc3)C[C@@H]2C)c(C)n1.Cl [Example 37, N,6-Dimethyl-5-[((2S)-2-methyl-4-{[4-(trifluoromethyl)phenyl]sulfonyl}-1-piperazinyl)carbonyl]-2-pyridinamine hydrochloride] | ≥ 5.5 |

same assay, conditions: 10th versus 1st depolarising pulse, 10 Hz, holding potential -90 mV to +10 mV; HEK293 cells expressing human CaV2.2 alpha/beta3/alpha2delta1; listed as compound 9, formic acid salt

| SMILES | pUD30 (use-dependent; concentration producing 30% use-dependent inhibition) |
| --- | --- |
| Cc1ccc(C(=O)N2CCN(S(=O)(=O)c3ccc(C(F)(F)F)cc3)[C@H](C)C2)cn1.O=CO [Example 9, (2R)-2-Methyl-4-[(6-methyl-3-pyridinyl)carbonyl]-1-{[4-(trifluoromethyl)phenyl]sulfonyl}piperazine formic acid salt] | ≥ 4.5 |

same assay, conditions: 10th versus 1st depolarising pulse, 10 Hz, holding potential -90 mV to +10 mV; HEK293 cells expressing human CaV2.2 alpha/beta3/alpha2delta1; listed as compound 63

| SMILES | pUD30 (use-dependent; concentration producing 30% use-dependent inhibition) |
| --- | --- |
| Cc1ccc(C(=O)N2CCN(S(=O)(=O)c3ccc(C#N)cc3C)C[C@H]2C)cn1 [Example 63, 3-methyl-4-({(3R)-3-methyl-4-[(6-methyl-3-pyridinyl)carbonyl]-1-piperazinyl}sulfonyl)benzo-nitrile] | ≥ 4.5 |
